Several values for one entry are separate records, joined by “and”; a condition that tells them apart may be missing. Equal entries are not always repeated.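 Grown in 96-well plates, cells were treated for 48 hours with each compound at five concentrations. Insufficient inhibition: endpoint recorded as highest concentration tested. GI50 is the concentration that inhibits growth by half. TGI is the concentration that stops growth completely.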 Activity calls are given as the source filed them. No stated cut-off is given here; in the data, active means GI50 below about 0.43 µM; inactive means the rest.
The molecules below were run on NCI-H322M lung (assay: NCI anticancer screen, dose series, 48 h).

SMILES	TGI	GI50	outcome
NC(=S)N/N=C1\CCCCc2ccccc21	> 10 µM	–	–
CN(C)C1C(=O)C(C(=O)NCN2CCCC2)=C(O)C2(O)C(=O)C3=C(O)c4c(O)cccc4C(C)(O)C3CC12 (stereo not given)	> 100 µM	–	–
Cc1cc(Nc2ccc(S(=O)(=O)O)cc2)c2ccccc2n1	> 100 µM	–	–
CCN(CC)Cc1cc(Nc2c3ccc(Cl)cc3nc3ccc(OC)cc23)ccc1O	31.3 µM	10.8 µM	–
COc1cc2c(cc1OC)C1[C@@H](c3ccccc3)OCN1CC2 (stereo not given in full)	> 100 µM	–	–
Cc1ccc(O)c(-c2cc(-c3cccc(Br)c3)on2)c1	63.4 µM	–	–
Cc1[nH]c(=O)[nH]c(=S)c1C(=O)NC1C2CCCCC2NC2CCCCC21 (stereo not given)	40.2 µM	–	–
CNCC(=O)Nc1ccc2c(c1)C(=O)c1ccc(NC(=O)CNC)cc1C2=O	11.9 µM	–	–
O/N=C1/C(=C/c2ccc(Cl)c(Cl)c2)CCCC1C(NO)c1ccc(Cl)c(Cl)c1 (stereo not given)	28.2 µM	–	–
CCOC(=O)C12CCCC1(O)N(NC(N)=O)C(C)=C2C(=O)OC (stereo not given)	> 100 µM	–	–
C=C(CNCCc1ccc(O)cc1)[C@@H]1CC[C@]2(CO)CC[C@]3(C)[C@H](CC[C@@H]4[C@@]5(C)CCC(NCCc6ccc(O)cc6)C(C)(C)[C@@H]5CC[C@]43C)[C@@H]12 (stereo not given in full)	2.81 µM	1.47 µM	–
CCOC(=O)C(/C=N\C(=S)Nc1c(CC)cccc1C(C)(C)C)=C(/O)c1ccccc1	> 100 µM	–	–
Oc1ccc(O)c(Cc2ccccc2)c1	> 100 µM	–	–
c1ccc2cc(C[n+]3ccn(CCCCCCCCCCCCn4cc[n+](Cc5ccc6ccccc6c5)c4)c3)ccc2c1	3.9 µM	0.858 µM	–
CC(C)(Cl)C(Br)CCC(C)(Br)C(Br)CBr (stereo not given)	53 µM	–	–
CN(C)c1cc[n+](/C(NS(=O)(=O)c2cc(C(=O)Nc3ccc(Cl)cc3)c(Cl)cc2[S-])=C(\C#N)C(=O)c2ccccc2)cc1	98.6 µM	33.7 µM	–
Cc1nn(C(=O)c2ccccc2O)c2c1C(c1ccc3ccccc3c1O)SC(N)=N2 (stereo not given)	> 10 µM	–	–
CC(C)NCCCC(C)Nc1ccnc2ccc3nn(C)nc3c12 (stereo not given)	> 100 µM	–	–
Clc1ccc2c(c1)C(Br)c1cc(Cl)cc(Cl)c1-2 (stereo not given)	> 100 µM	> 100 µM	–
O=C1c2[nH]c3ccccc3c2CCN2CCCCC12 (stereo not given)	> 100 µM	–	–
CC(C)(C)c1ccc(C(C)(C)C)c(N2C(=O)[C@@H]3[C@@H]4C=C[C@@H](C4)[C@]3(C)C2=O)c1	> 100 µM	–	–
COc1ccc(/C(=N/O)C(c2ccc(OC)cc2)C2C(=O)Oc3ccccc32)cc1 (stereo not given)	> 100 µM	–	–

SMILES	TGI	GI50	outcome
Cn1ncc(NC(=O)c2nc(-c3c(F)cccc3F)sc2N)c1N1CC[C@@H](N)[C@H](F)CC1	55.3 µM	4 µM	–
CO[C@@H]1C[C@H](OC(N)=O)[C@@H]2C=C[C@@H]3/C=C(C)/C=C/[C@@H](C)[C@H]([C@H](C)[C@H](O)[C@@H](C)NC(C)=O)OC(=O)/C=C/C=C(C)\C=C\[C@]3(C)[C@@H]2C1	11 µM	–	–
O=C(Nc1nc(-c2ccc(Cl)cc2)cs1)c1cc(-c2ccc(Br)cc2)nc2ccc(Cl)cc12	> 100 µM	32.4 µM	–
O=c1cc(-c2ccccc2)c2ccc(O)c(CN(CCCl)CCCl)c2o1	67.8 µM	–	–
O=C(CCc1n[nH]c(=S)o1)Nc1ccc(Cl)cc1Cl	> 100 µM	–	–
COC(=O)/C=C/C1C2C3(CCC(C)C12C)OCCS3 (stereo not given)	> 100 µM	–	–
CC(=O)Nc1ccc(S(=O)(=O)Nc2nc(-c3ccc(Cl)cc3)cc(N3N=C(c4ccc(Br)cc4)CC3c3ccccc3)n2)cc1 (stereo not given)	30 µM	–	–
CC1=C2O[C@]3(O)C=C2C(=C(O)C1=O)[C@@H]1O[C@H](CC[C@H](C)/C=C(\C)C[C@@H](C)C[C@@H]3C)[C@H](C)[C@H](O)[C@H]1C	2.47 µM and 2.98 µM	1.54 µM	–
Clc1cc(Cl)cc(-c2ccc(-c3ccc(/C=N/NC4=NCCN4)cc3)s2)c1	3.12 µM	1.69 µM	–
OC1c2ccccc2CCC1C(O)(C(F)(F)F)C(F)(F)F (stereo not given)	> 100 µM	–	–
c1ccc(C2(c3ccccc3)SSC3(S2)C2CC4CC(C2)CC3C4)cc1 (stereo not given)	> 100 µM	–	–
CCC(CC)c1nc(Nc2cccc(OC)c2)c2ccccc2n1	12.2 µM	6 µM	–
CN(CCCCCl)P(=O)(OCC1=CC(=O)c2ccccc2C1=O)OC[C@H]1O[C@@H](n2cc(F)c(=O)[nH]c2=O)C[C@@H]1O (stereo not given in full)	19.8 µM	–	–
Cc1ccc(O)c(C(c2ccc(C(c3cc(C)ccc3O)c3cc(C)ccc3O)cc2)c2cc(C)ccc2O)c1	3.03 µM	–	–
O=C1C(Cl)=C(Cl)C(=O)C2=C1C1c3ccccc3C2c2ccccc21	> 100 µM	–	–
CC(=O)OC1C2CCC1C1C2N=NN1c1ccc([N+](=O)[O-])cc1 (stereo not given)	> 100 µM	–	–
CC(=O)Oc1c(-c2ccccc2)oc2ccccc12	11.1 µM	–	–
COc1cc(OC)c2c(c1)C(=O)C(CC1(C)OCCCO1)=CC2=O	29.8 µM	–	–
Cc1ccc(C(=O)O)cc1NC(=O)c1cc(/C=C/c2ccccc2)[nH]c(=S)n1	> 100 µM	–	–
C[n+]1c(-c2ccccc2)c2cc(N)ccc2c2ccccc21	> 48.2 µM	6.98 µM	–
C#CCn1cnc2cnc(Nc3cccc(NC(=O)CCl)c3)nc21	> 62.5 µM	30 µM	–
O=c1cc(-c2cc(O)c(O)c(-c3c(O)cc(O)c4c(=O)cc(-c5ccc(O)c(O)c5)oc34)c2)oc2cc(O)cc(O)c12	–	–	inactive

SMILES	TGI	GI50	outcome
CC(C)(C)OC(=O)NCCc1ccc(N)cc1	> 100 µM	–	–
O=[N+]([O-])c1ccc2c(c1)Sc1ccccc1N2	> 100 µM	–	–
O=C(c1nc2ccc(Cl)cc2[nH]c1=O)C(O)c1ccccc1 (stereo not given)	> 100 µM	–	–
COc1cc2ccnc(C=O)c2cc1OC	> 100 µM	> 100 µM	–
CC1=CC(C)(C)[C@H]2O[C@@]3(O)C[C@]4(C)[C@H]5C[C@@](C(C)C)(O[C@H]4c4ccoc4)O[C@H]4[C@]5(C3)O[C@@]1(O)[C@]24O	> 100 µM	–	–
O=C1C(c2c(O)[nH]c3ccc([N+](=O)[O-])cc23)=Nc2ccccc21	> 100 µM	–	–
Nc1nonc1C(=Nc1ccc(F)c(Cl)c1)NO	> 100 µM	> 100 µM	–
CCOC(=O)C(C)c1c(C(=O)c2ccc(C)nc2)c2ccccc2n1C (stereo not given)	> 100 µM	–	–
COC1=CC(=Nc2c(Cl)cc(Cl)cc2OC(=O)c2ccc([N+](=O)[O-])cc2)C=C(OC)C1=O	31.1 µM	–	–
N[C@]1(C(=O)O)C[C@@H]2C(Br)=NO[C@@H]2C1	> 100 µM	–	–
O=C(NN1C(=O)C(Cl)C1c1ccc(O)cc1)c1ccccc1O (stereo not given)	42.4 µM	–	–
O=C1C(Cl)=C(N2C(=O)CCC2=O)C(=O)c2ccccc21	> 100 µM	–	–
Cc1ccc(-n2c(=O)c3nn4c(=O)n(-c5ccc(C)cc5)c(=O)c4nn3c2=O)cc1	> 100 µM	–	–
CNc1ccccc1-c1nc2ccccc2c(=O)o1	> 100 µM	–	–
c1ccc2c(c1)SC1=C(SC(=C3SC4=C(S3)Sc3ccccc3S4)S1)S2	> 100 µM	–	–
CC1CCC(=O)NCCCCC(=O)N1 (stereo not given)	> 100 µM	–	–
CC(N)Cc1ccc(F)cc1 (stereo not given)	> 100 µM	–	–
O=c1c2cc(F)ccc2sc2c(Nc3ccncc3)nc3ccccc3c12	7.53 µM	2.23 µM	–
Cc1cc(=O)oc2cc(OCc3nc4ccccc4c(=O)n3-c3ccccc3)ccc12	> 100 µM	–	–
COc1cc2c(cc1OCCCCCn1c(-c3ccc(OCc4ccccc4)cc3)nc3cc(N4CCOCC4)ccc31)N=C[C@@H]1CCCN1C2=O	18 µM	3.03 µM	–
C=Cc1nc2nnc(CCCCCCCCc3nnc4nc(C=C)[nH]n34)n2[nH]1	> 100 µM	–	–
O=C(CSc1nc2ccccc2c2ccccc12)c1ccccc1	> 100 µM	–	–

SMILES	TGI	GI50	outcome
O=[N+]([O-])c1cc(Cl)c(Cl)cc1[N+](=O)[O-]	31.3 µM	–	–
CCC[CH2][Sn]1([CH2]CCC)[O]C(=O)c2cccc(C)c2[O]1	3.14 µM	1.7 µM	–
Cc1ccc(S(=O)(=O)NC(=O)NC(C(=O)O)C(C)C)cc1 (stereo not given)	> 100 µM	–	–
Nc1nc(N)c(N=Nc2ccccc2)c(-c2ccccc2)n1	59.3 µM	11.2 µM	–
COc1cccc2c1N[S@](=O)S2	> 100 µM	–	–
C[C@@]1(C(=O)Nc2ccc(F)nc2)CCCN1c1nc(Nc2cc(C3CC3)[nH]n2)c2cccn2n1	> 5.33 µM and 39.5 µM	0.98 µM and 5 µM	–
CCOC(=O)C1C(O)CC2c3ccccc3-c3ccccc3C21 (stereo not given)	> 100 µM	–	–
CCCCCCCCCCCCCC(=O)OC1C(O)C(CO)OC(OC)C1NC(=O)N(CCCl)N=O (stereo not given)	> 100 µM	–	–
COc1ccc(/C=C/C(=O)c2cc3c(N)c(C(=O)Nc4cccc(Cl)c4C)sc3nc2C)cc1	> 50 µM	0.302 µM	–
O=C(/C=C/c1ccc(Cl)cc1)c1ccc(Nc2nc(Nc3ccc(F)cc3)nc(Nc3ccc(F)cc3)n2)cc1	> 100 µM	> 100 µM	–
CCNC(=O)N(CC)CN(CC)C(=O)NCC	> 100 µM	–	–
CCOC(=O)C1CCCCN1C(=O)OCc1ccccc1 (stereo not given)	> 100 µM	–	–
Cc1cc2nc(C#N)c(N3CCN(c4ccc([N+](=O)[O-])cc4)CC3)nc2cc1C	> 100 µM	–	–
CC(C)=CCC/C(C)=C/CO	> 100 µM	–	–
CCCCCCCCCCS(=O)CC(CO)NC(=O)/C=C/c1c(C)[nH]c(=O)[nH]c1=O (stereo not given)	5.45 µM	–	–
NC1CCCCC1N.Nc1c(N=Nc2ccc(-c3ccc(N=Nc4cc(S(=O)(=O)[O-])c5ccccc5c4N)cc3)cc2)cc(S(=O)(=O)[O-])c2ccccc12.[OH3+].[OH3+].[Pt+4]	> 100 µM	> 100 µM	–
CCC(=O)c1cc(C(=O)C(=S)SC)cc(C(=O)C(=S)SC)c1	> 100 µM	–	–
CCOCCOC(=O)C1CCC(=O)N1CN(C(C)=O)c1cc(OC)ccc1OC (stereo not given)	> 100 µM	–	–
O=C(Cc1nc2ccccc2o1)C(=O)Nc1ccccc1C(F)(F)F	> 100 µM	–	–
CC12CP(=O)(c3ccccc3)CC1c1ccccc1C2c1ccccc1 (stereo not given)	> 100 µM	–	–
NCCCCCCCCCCn1c2c(c3ccccc3c1=O)C(=O)c1ccccc1-2	16.1 µM	4.18 µM	–

Reference: PubChem BioAssay (NCI)
